Data taken from PubChem BioAssay AID488895 (Broad Institute, 2010).
Values joined by “and” are separate entries in the source; they are usually repeats but may differ in a detail not shown here. Equal entries are not always repeated. Among all 340,000 compounds or so, about 120 (0.035%) were called active. Inconclusive means that the source gave no clear call. Such entries were picked first, then a sample of the others.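 The calls were made as follows: active = mean replicate inhibition at least 50% and at least half of replicates individually reaching 50%; inconclusive = only one of the two criteria met; inactive = neither criterion met.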 A structure can be active in one record and inactive in another.

Experiment: E. coli Tat export inhibitors, primary screen, MC4100, TorA-mCherry reporter, fluorescence, single point (AID 488895);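 also: exported cargo escapes ClpAP degradation while cytoplasmic cargo is degraded and loses fluorescence; 0% = median of neutral control wells and 100% = median of NaSCN control wells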
Details: at 10 µM, stronger effect = higher value

Structure (SMILES) | inhibition
O=[N+]([O-])c1ccc(-c2ccn[nH]2)o1 | inconclusive: 47.8%
CCOC(=O)c1sc(-c2ccccc2)cc1NC(=O)Nc1ccc([N+](=O)[O-])cc1 | inconclusive: 33.4%
Cc1ccc(S(=O)(=O)CC(=O)Nc2ncc([N+](=O)[O-])s2)cc1 | inactive: 4.13%
COc1ccc2c(c1)c(C(O)CN1CCC(Cc3ccccc3)CC1)c(C)n2C (centres undefined) | inconclusive: 35.1%
CCOc1ccc(Nc2nc3c(c(=O)[nH]2)CCCC3)cc1 | inconclusive: 30%
CCN(CC)S(=O)(=O)c1ccc(=O)n(CC(=O)N2Cc3ccccc3CC2C(N)=O)c1 (centres undefined) | inconclusive: 26.5%
CCn1nc(C)c([N+](=O)[O-])c1C(=O)NNC(=O)c1ccc(Cl)cc1 | inconclusive: 26.2%
COc1c(N2C[C@@H]3CCCN[C@@H]3C2)c(F)cc2c(=O)c(C(=O)O)cn(C3CC3)c12 | active: 106%
CCOc1ccc(N(CC(=O)NCc2ccc(OC)cc2)S(=O)(=O)c2c(C)[nH]c(=O)[nH]c2=O)cc1 | inconclusive: 29.6%
O=C(CSc1nc2ccccc2o1)Nc1ccc(N2CCOCC2)cc1 | inactive: -10.6%
CC(=O)NCC(=O)OCC(=O)c1ccc(C)cc1 | inconclusive: 31.1%
CC(=O)Oc1ccc(C(=O)Nc2ccccc2C(=O)N2CCCCC2)cc1 | inconclusive: 23.5%
CN(C)c1ccc(O)c2c1CC1CC3C(N(C)C)C(=O)C(C(N)=O)=C(O)[C@@]3(O)C(=O)C1=C2O (some centres undefined) | active: 150%
Cc1cc(Nc2nc3ccccc3nc2Cl)n(-c2ccccc2C)n1 | inconclusive: 34.7%
O=C(CCCCCNC(=O)c1ccccc1)C[N+](=O)[O-] | inconclusive: 33.7%
Cc1cc2ncn(CCOc3ccccc3)c2cc1C | inconclusive: 35.8%
O=C1Nc2ccc(S(=O)(=O)NCCCO)c3cccc1c23 | inconclusive: 38.4%
COc1ccc(NC(=S)NN(C)C(=S)Nc2ccc(OC)cc2)cc1 | inconclusive: 40.4%
Clc1ccccc1-c1nn2c(-c3ccncc3)nnc2s1 | inconclusive: 39%
Cc1ccc(-c2nc3ccccc3s2)cc1NC(=S)NC(=O)c1cccc2ccccc12 | inconclusive: 22.4%
CC(=O)N1CCN(CC(c2ccccc2)c2ccccc2)CC1 | inactive: -7.44%

Structure (SMILES) | inhibition
O=C(CN1CCC(c2nc3ccccc3s2)CC1)NCc1cccs1 | inconclusive: 33.7%
Oc1ccc(/C=N/Nc2ccc(Cl)nn2)c(O)c1O | inactive: -2.76%
Cc1ccc2cc(CN(Cc3ccco3)C(=S)NCC3CCCO3)c(=O)[nH]c2c1 (centres undefined) | inactive: -0.667%
Cc1ccccc1NC1=NC(=S)N(c2ccccc2)C12CCOC(C)(C)C2 (centres undefined) | inconclusive: 26.5%
O=C(CSc1nc2ccccc2c(=O)[nH]1)N1CCN(c2ccccc2F)CC1 | inconclusive: 30.7%
O=c1c2ccccc2n(Cc2ccc(F)cc2)c(=O)n1C1CCCC1 | inactive: -0.995%
CCCOc1cccc(C(=O)Nc2ccc(Br)cc2F)c1 | inconclusive: 26.4%
CCc1ccc(NC(=O)Nc2cc(C(=O)NCC3CCCO3)ccc2N2CC3CC(C2)c2cccc(=O)n2C3)cc1 (centres undefined) | inconclusive: 26.5%
C=C(C)CSc1nnc(-c2ccc(OC)c(OC)c2)n1N | inconclusive: 44.8%
CC(C)[C@@H](C(=O)N1CCNCC1)n1cc(CCO)nn1 | inconclusive: 41.1%
Nc1ccc2cn[nH]c2c1 | inconclusive: 38.3%
NC(=O)NC(=O)CSc1nc2sc(-c3ccccc3)cc2c(=O)n1-c1ccccc1 | inconclusive: 38.5%
CCCOc1ccc(C(=O)NC(=S)N2CCN(c3cc4c(cc3F)c(=O)c(C(=O)O)cn4CC)CC2)cc1 | active: 62.5%
CCC[C@@H](CN1CCC[C@H]1CN1C(N)=NC[C@@H]1Cc1ccccc1)N1C[C@@H]([C@H](C)CC)N(CCCC2CCCC2)C1=N | active: 95.7%
NC(=NCCCCCCN=C(N)/N=C(\N)Nc1ccc(Cl)cc1)/N=C(\N)Nc1ccc(Cl)cc1 | inactive: 48.6% and active: 158% and active: 156%
O=C(Nc1ccccc1Oc1ccccc1)c1ccc(Br)o1 | inconclusive: 33.2%
CNC(=O)COc1ncnc2sccc12 | inactive: -3.06%
Cc1ccc(/C=C2/C(=N)N3N=C(CC(=O)N4CCCC4)SC3=NC2=O)o1 | inconclusive: 26.9%
CCOC(=O)c1ccccc1N1C(=O)CSC1=S | inconclusive: 28.2%
Cc1ccc(-n2nnnc2SCC(=O)Nc2ccc3c(c2)OCCO3)cc1C | inconclusive: 43.5%
CC(C)C[C@@H](CN1CCC[C@@H]1CN1C(=O)C(=O)NC[C@@H]1Cc1ccccc1)N1C[C@H](Cc2ccc(O)cc2)N(CC2CCCCC2)C(=O)C1=O | inconclusive: 33.4%

Structure (SMILES) | inhibition
Cc1onc(-c2ccccc2)c1C(=O)NCc1ccc(F)cc1 | inconclusive: 39.1%
O=S(=O)(NC1CCCC1)c1cc(F)ccc1F | inconclusive: 27.5%
O=C(COc1ccc2c3c(c(=O)oc2c1)CCCC3)NCC(O)c1ccccc1 (centres undefined) | inconclusive: 22.7%
Cc1nc2ccc(NC(=O)C3CCN(S(=O)(=O)c4cccs4)CC3)cc2s1 | inconclusive: 27.4%
Cc1c(CCOC(=O)C23CC4CC(CC(C)(C4)C2)C3)sc[n+]1Cc1ccccc1 | inactive: 9.47%
Nc1ccc(S(=O)(=O)N2CCCc3ccccc32)cc1 | inconclusive: 25.8%
Cc1nn(-c2ccccc2)c(Cl)c1/C=C(\CC(=O)O)c1nc2ccccc2s1 | inconclusive: 44.5%
O=C1/C(=C/c2cccnc2)Oc2cc(OS(=O)(=O)c3ccccc3)ccc21 | inconclusive: 46.5%
CCCCc1ccc(N=N/C(C(=O)Nc2ccc(NC(C)=O)cc2OC)=C(/C)O)cc1 | inconclusive: 35.5%
CCC(C)N1CCC2(CC1)N=c1c(c3c4c5c(C)c(O)c3c(O)c1=NC(=O)C(C)=CC=C[C@H](C)[C@H](O)[C@@H](C)[C@@H](O)[C@@H](C)[C@H](OC(C)=O)[C@H](C)[C@@H](OC)C=CO[C@@](C)(O5)C4=O)N2 (some centres undefined) | active: 107%
O=C(N/N=C\c1c(O)ccc2ccccc12)c1ccc(O)cc1 | inactive: 2.85%
CCC1SC(C)C/C(=N/NC(N)=O)C1C (centres undefined) | inconclusive: 19.2%
O=C(CCCCl)NC1=NN(c2ccccc2)C(=O)C1 | inactive: -1.18%
Cc1ccc(NC(=O)c2ncn(CCCNCc3ccccn3)n2)cc1C | inconclusive: 34.8%
CC(C)OC(=O)C(C(=O)C(F)(F)F)c1cc(NS(=O)(=O)c2ccc3ccccc3c2)c2ccccc2c1O (centres undefined) | inconclusive: 28.7%
CCC(=O)NC(c1ccc(Cl)cc1Cl)c1ccc2cccnc2c1O (centres undefined) | inactive: 0.73%
Cc1cc(C)cc(C(=O)N2CCN=C2SCc2ccc([N+](=O)[O-])cc2)c1 | inactive: 7.58%
CC1CCN(C(=O)c2ccc(S(=O)(=O)N3CCCC3)cc2)CC1 | active: 54.5%
COc1ccccc1N1CCN(C(=O)c2cc3c(=O)n4ccccc4nc3s2)CC1 | inconclusive: 33.5%
Cc1cc(NC(=O)Cn2c(C)nc3ccccc3c2=O)ccc1Br | inactive: 4.33%
COC(=O)c1ccc(N2NC(=O)/C(=C/c3ccc(-c4ccc(Cl)c(C(=O)O)c4)o3)C2=O)cc1 | inactive: 8.54%

Structure (SMILES) | inhibition
CC(C)(C)OC(=O)N[C@@H](Cc1ccccc1)[C@H](O)c1ccco1 | inconclusive: 41.4%
C[C@H](NC(=O)c1nc[nH]c1C(=O)NCC(=O)OC(C)(C)C)c1ccccc1 | inconclusive: 31.1%
Cc1onc(C(=O)NCc2ccc(F)cc2)c1[N+](=O)[O-] | inconclusive: 25%
O=C(Nc1ccccc1F)c1ccc([N+](=O)[O-])s1 | inconclusive: 37.2%
Cc1ccc(Nc2nnns2)cc1C | inconclusive: 29.2%
COC(=O)C1C(O)C(C)C(O)C(C)(O)/C=C\C=C(/C)C(=O)Nc2c(C)c(OC(C)=O)c3c(c2O)C(=O)C(C)=C2OCOC(=C23)/C(C)=C/C(C)(O)C(O)C(C)C1O (centres undefined) | active: 65%
Cc1cc(C)cc(NC(=O)C2CCCN(c3ncccn3)C2)c1 (centres undefined) | inactive: -6.67%
O=S(=O)(Nc1ccc(C(F)(F)F)cc1)c1cccs1 | inactive: 1.37%
CC(C)c1ccc(NC(=O)c2snc3ccc(Cl)cc23)cc1 | inconclusive: 28.9%
N=C(N)c1ccc(Cl)cc1 | inactive: -7.03%
Fc1cccc(NC(=S)NCCCN2CCOCC2)c1 | inconclusive: 26.1%
CN1CCN(S(=O)(=O)c2ccc(N3CCN(c4ccccc4O)CC3)c([N+](=O)[O-])c2)CC1 | inactive: -4.89%
Cn1c(-c2ccccc2)cnc1SCc1nc2ccccc2c(=O)[nH]1 | inconclusive: 28.7%
CCCCc1c(O)nc(SCC(=O)c2ccccc2)[nH]c1=O | inconclusive: 22.5%
Cc1cccc(NC(=O)CN(c2ccc(F)cc2)S(C)(=O)=O)c1 | inconclusive: 34.5%
COc1cccc(/C=N/NC(=O)N/N=C/c2cccc(OC)c2O)c1O | inactive: -4.77%
Cc1nn(CC(=O)NNC(=O)c2cccc(Br)c2)c(C)c1[N+](=O)[O-] | inconclusive: 25%
COc1cccc(CN2CCN(C(=O)c3ccco3)CC2)c1 | inconclusive: 37.4%
CCn1cc(C(=O)O)c(=O)c2cc(F)c(N3CCN(C(=S)NC(=O)c4ccc(OC)cc4)CC3)cc21 | active: 81.4%
c1ccc(Nc2cc(-c3ccccc3)nc3ncnn23)cc1 | inconclusive: 30.7%
Cc1ccc(NC(=O)COC(=O)CN2C(=O)NC(C)(C)C2=O)cc1S(=O)(=O)N1CCOCC1 | inconclusive: 29.9%
